# Laboratory results reported in the supplement of paper PMC8728848.
# The other results are listed elsewhere or left out.
# How the values were obtained:
# Test in all cases: glycan array binding signal (z-score within array); higher = stronger binding
# Settings in all cases: glycan notation: IUPAC condensed, linker removed
# [1] = target: Gal(b1-3)GlcNAc(a1-6)Gal(b1-4)GlcNAc
# Procedure, shortened: (§1)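 Glycan array data came from 3228 arrays in the Consortium for Functional Glycomics database, and only arrays with an available protein sequence were kept. Glycan names were put into IUPAC-condensed notation, and columns mapping to the same glycan were averaged. The binding signal is a within-array Z-score, averaged across arrays of one protein sequence run at different concentrations or buffers and across linkers. A negative Z-score can be read as non-binding.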
# [2] = target: Gal(b1-3)GlcNAc(b1-2)Man
# Procedure, shortened: as §1
# [3] = target: Gal(b1-3)GlcNAc(b1-2)Man(a1-3)[Gal(b1-3)GlcNAc(b1-2)Man(a1-6)]Man(b1-4)GlcNAc(b1-4)GlcNAc
# Procedure, shortened: as §1
# [4] = target: Gal(b1-3)GlcNAc(b1-2)Man(a1-3)[Gal(b1-3)GlcNAc(b1-2)Man(a1-6)]Man(b1-4)GlcNAc(b1-4)[Fuc(a1-6)]GlcNAc
# Procedure, shortened: as §1
# [5] = target: Gal(b1-3)GlcNAc(b1-2)Man(a1-3)[GlcNAc(b1-4)][Gal(b1-3)GlcNAc(b1-2)Man(a1-6)]Man(b1-4)GlcNAc(b1-4)GlcNAc
# Procedure, shortened: as §1
# [6] = target: Gal(b1-3)GlcNAc(b1-2)[Gal(b1-3)GlcNAc(b1-6)]Man(a1-6)[Gal(b1-3)GlcNAc(b1-2)Man(a1-3)]Man(b1-4)GlcNAc(b1-4)GlcNAc
# Procedure, shortened: as §1
# [7] = target: Gal(b1-3)GlcNAc(b1-3)Gal(b1-3)GlcNAc
# Procedure, shortened: as §1
# [8] = target: Gal(b1-3)GlcNAc(b1-3)Gal(b1-4)Glc
# Procedure, shortened: as §1
# [9] = target: Gal(b1-3)GlcNAc(b1-3)Gal(b1-4)GlcNAc
# Procedure, shortened: as §1
# [10] = target: Gal(b1-3)GlcNAc(b1-3)Gal(b1-4)GlcNAc(b1-2)Man(a1-3)[Gal(b1-3)GlcNAc(b1-3)Gal(b1-4)GlcNAc(b1-2)Man(a1-6)]Man(b1-4)GlcNAc(b1-4)GlcNAc
# Procedure, shortened: as §1
# [11] = target: Gal(b1-3)GlcNAc(b1-3)Gal(b1-4)GlcNAc(b1-2)[Gal(b1-3)GlcNAc(b1-3)Gal(b1-4)GlcNAc(b1-6)]Man(a1-6)[Gal(b1-3)GlcNAc(b1-3)Gal(b1-4)GlcNAc(b1-2)Man(a1-3)]Man(b1-4)GlcNAc(b1-4)[Fuc(a1-6)]GlcNAc
# Procedure, shortened: as §1
# [12] = target: Gal(b1-3)GlcNAc(b1-3)Gal(b1-4)GlcNAc(b1-3)Gal(b1-4)GlcNAc(b1-2)[Gal(b1-3)GlcNAc(b1-3)Gal(b1-4)GlcNAc(b1-3)Gal(b1-4)GlcNAc(b1-6)]Man(a1-6)[Gal(b1-3)GlcNAc(b1-3)Gal(b1-4)GlcNAc(b1-3)Gal(b1-4)GlcNAc(b1-2)Man(a1-3)]Man(b1-4)GlcNAc(b1-4)[Fuc(a1-6)]GlcNAc
# Procedure, shortened: as §1
# [13] = target: Gal(b1-3)GlcNAc(b1-3)Gal(b1-4)GlcNAc(b1-6)[Gal(b1-3)GlcNAc(b1-3)]Gal(b1-4)Glc
# Procedure, shortened: as §1
# [14] = target: Gal(b1-3)GlcNAc(b1-3)Gal(b1-4)[Fuc(a1-3)]GlcNAc
# Procedure, shortened: as §1
# [15] = target: Gal(b1-3)GlcNAc(b1-3)Gal(b1-4)[Fuc(a1-3)]GlcNAc(b1-6)[Gal(b1-3)GlcNAc(b1-3)]Gal(b1-4)Glc
# Procedure, shortened: as §1
# [16] = target: Gal(b1-3)GlcNAc(b1-3)GalNAc
# Procedure, shortened: as §1
# [17] = target: Gal(b1-3)GlcNAc(b1-6)Gal(b1-4)GlcNAc
# Procedure, shortened: as §1
# [18] = target: Gal(b1-3)GlcNAc(b1-6)GalNAc
# Procedure, shortened: as §1
# [19] = target: Gal(b1-3)GlcNAc(b1-6)[Gal(b1-3)]GalNAc
# Procedure, shortened: as §1
# [20] = target: Gal(b1-3)GlcNAc6S
# Procedure, shortened: as §1
# [21] = target: Gal(b1-3)[Fuc(a1-4)]GlcNAc
# Procedure, shortened: as §1
# [22] = target: Gal(b1-3)[Fuc(a1-4)]GlcNAc(b1-2)Man
# Procedure, shortened: as §1
binder,measurement,setting,value
"ECA (Erythrina cristagalli), P83410 (protein) VETISFSFSEFEPGNDNLTLQGAALITQSGVLQLTKINQNGMPAWDSTGRTLYTKPVHMWDSTTGTVASFETRFSFSIEQPYTRPLPADGLVFFMGPTKSKPAQGYGYLGVFNNSKQDNSYQTLAVEFDTFSNPWDPPQVPHIGIDVNSIRSIKTQPFQLDNGQVANVVIKYDAPSKILHVVLVYPSSGAIYTIAEIVDVKQVLPDWVDVGLSGATGAQRDAAETHDVYSWSFQASLPE",glycan array binding signal (z-score),[1],-0.325
same,glycan array binding signal (z-score),[2],-0.482
same,glycan array binding signal (z-score),[3],-0.026
same,glycan array binding signal (z-score),[4],-0.061
same,glycan array binding signal (z-score),[5],0.824
same,glycan array binding signal (z-score),[6],-0.282
same,glycan array binding signal (z-score),[7],-0.393
same,glycan array binding signal (z-score),[8],-0.239
same,glycan array binding signal (z-score),[9],-0.251
same,glycan array binding signal (z-score),[10],-0.444
same,glycan array binding signal (z-score),[11],0.845
same,glycan array binding signal (z-score),[12],0.723
same,glycan array binding signal (z-score),[13],-0.076
same,glycan array binding signal (z-score),[14],0.048
same,glycan array binding signal (z-score),[15],-0.407
same,glycan array binding signal (z-score),[16],-0.386
same,glycan array binding signal (z-score),[17],-0.601
same,glycan array binding signal (z-score),[18],-0.491
same,glycan array binding signal (z-score),[19],-0.249
same,glycan array binding signal (z-score),[20],-0.549
same,glycan array binding signal (z-score),[21],-0.234
same,glycan array binding signal (z-score),[22],0.269
